Laboratory results from the antibiotic and cytotoxicity screens of Wong et al. (2023).
Some of the results follow.

Each compound was assayed on S. aureus RN4220 (assay: growth inhibition call (relative growth <= 0.2)). Conditions: 50 µM.

Growth inhibition call, inactive:
CO[C@@H](CN(C)C(=O)c1ccc2c(c1)OCO2)[C@@H](C)CN([C@H](C)CO)S(=O)(=O)c1ccc(Cl)cc1
C[C@H]1CN([C@@H](C)CO)S(=O)(=O)c2ccc(-c3ccccc3F)cc2O[C@@H]1CN(C)S(C)(=O)=O
COc1ccc(S(=O)(=O)Nc2ccc3c(c2)C(=O)N([C@@H](C)CO)C[C@@H](C)[C@@H](CN(C)S(=O)(=O)c2c(C)noc2C)O3)cc1
C[C@@H]1CN([C@@H](C)CO)C(=O)c2cc(NC(=O)Cn3cnnn3)ccc2O[C@H]1CN(C)Cc1ccncc1
O=C([C@H]1N[C@H]2c3ccc(-c4ccc(F)cc4)c(=O)n3C[C@H]2[C@@H]1CO)N1CCOCC1
Cc1cc2nc3c(=O)[nH]c(=O)nc-3n(CC(O)C(O)C(O)CO)c2cc1C (stereo not given)
C[C@H](CO)N1C[C@H](C)[C@@H](CN(C)S(=O)(=O)c2cccs2)OCCCC[C@H](C)Oc2ccc(NC(=O)Nc3ccc4c(c3)OCO4)cc2C1=O
Cc1noc(C)c1NC(=O)Nc1ccc2c(c1)C(=O)N([C@H](C)CO)C[C@H](C)[C@@H](CN(C)Cc1ccc3c(c1)OCO3)OCCCC[C@@H](C)O2
COc1ccc(S(=O)(=O)N(C)C[C@H]2Oc3ccc(NS(=O)(=O)c4ccc(F)cc4)cc3CC(=O)N([C@@H](C)CO)C[C@@H]2C)cc1
C[C@H]1CN([C@@H](C)CO)C(=O)Cc2cc(NC(=O)Nc3ccccc3)ccc2O[C@@H]1CN(C)C(=O)Nc1ccc(C(F)(F)F)cc1
C[C@@H]1CN([C@@H](C)CO)C(=O)c2cc(NC(=O)CCC(F)(F)F)ccc2O[C@@H](C)CCCCO[C@H]1CN(C)Cc1ccc(Cl)c(Cl)c1
COc1ccc(NC(=O)Nc2cccc3c2O[C@H](CN(C)C(=O)Nc2cccc4ccccc24)[C@@H](C)CN([C@@H](C)CO)C3=O)cc1
CCOC(=O)c1cn[nH]c1N
Nc1ccon1
CCCN(C)C[C@H]1OCCCC[C@H](C)Oc2ccc(NC(=O)Cc3ccccc3)cc2C(=O)N([C@@H](C)CO)C[C@H]1C
O=C(C[C@H]1CC[C@H]2[C@@H](COC[C@@H](O)CN2Cc2cccc(C(F)(F)F)c2)O1)NCCc1ccncc1
Cc1cc(C(=O)Nc2cccc3c2O[C@H](CN(C)C(=O)Nc2ccccc2)[C@H](C)CN([C@@H](C)CO)C3=O)n(C)n1
CCNC(=S)N1CCCC[C@@H]1CO
C[C@@H]1CN([C@@H](C)CO)C(=O)CCCn2cc(nn2)CO[C@@H]1CN(C)S(=O)(=O)c1ccc2ccccc2c1
C[C@H]1CN([C@@H](C)CO)C(=O)c2cccc(NC(=O)Nc3ccccc3)c2O[C@@H]1CN(C)CC1CCCCC1
